Consider 127 molecules from article PMC9574860, “Chemical Toolkit for PARK7: Potent, Selective, and High-Throughput” (Journal of Medicinal Chemistry, 2022).

About 400 (5.1%) of roughly 7,900 compounds showed an effect of 50% or more. This is one part of the list.

Sequence of Parkinson's disease protein 7 (PARK7/DJ1) (Q99497 whole entry, looked up, the tested form may be a part): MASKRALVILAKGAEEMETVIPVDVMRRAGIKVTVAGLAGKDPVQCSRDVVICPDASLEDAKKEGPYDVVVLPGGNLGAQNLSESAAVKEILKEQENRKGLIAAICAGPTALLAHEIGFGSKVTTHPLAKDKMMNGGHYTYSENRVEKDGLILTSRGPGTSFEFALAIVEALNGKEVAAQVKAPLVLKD

The target in the assay is Parkinson's disease protein 7 (PARK7/DJ1) (human, UniProt Q99497). The experiment in a line: primary screen, percent inhibition; read as competition with a fluorescent probe by fluorescence polarization; higher = more effect of the substance. The note with it: 100 µM. The gist of the method:
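Fluorescence-polarization probe displacement (JYQ-107, 20 nM final, 2 h) after 2 h preincubation of PARK7 (0.2 μM final) with each fragment at 100 μM final. Read-out ex/em 480/520 nm; remaining activity derived from FP signal loss relative to reference controls.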
For `C=CC(=O)NCC(=O)Nc1cn[nH]c1`, the Inhibition % came to 30.4%. On to `C=CC(=O)N1CCn2nc(C)nc2C1`, for which the Inhibition % stood at 12.4%. As to `CS(=O)(=O)N1CC2OC2C1` (stereo not shown), the Inhibition % is on record as 12.1%. As to `O=C(CCl)N1CCC(OCc2ccccc2)CC1`, the Inhibition % worked out at 12.9%. With `COC(=O)Cc1ccccc1B1OC(C)(C)C(C)(C)O1`, the Inhibition % is reported as 4.19%.

As to `O=C(Oc1cccc(-c2nnco2)c1)N1CCOCC1`, the Inhibition % was found to be 6.58%. Consider `C=CC(=O)NCc1ncc(C(F)(F)F)cn1`, for which the Inhibition % was found to be 11.5%. As to `C=CC(=O)NC1CCN(CC2CCCO2)CC1` (stereo not shown), the Inhibition % is given as 1.78%.

With `O=C(O)c1ccc(S(=O)(=O)F)c(Cl)c1`, the Inhibition % turned out to be 94.7%. Then `C=CC(=O)NC(c1cccnc1)c1cc2ccccc2o1` (stereo not shown), with 9%. For `C=CC(=O)N1CCOC(Cn2ccnn2)C1` (stereo not shown), the Inhibition % was found to be 6.45%. Then `Cc1cc(C)n(S(=O)(=O)c2cc(Cl)ccc2Cl)n1`, with 6.42%; and `O=C(O)CC1OCCCO1`, with -4.03%; and `C=CC(=O)N1CCC(c2cc(C(=O)O)on2)CC1`, with 7.61%. In the case of `Cc1ccc(C2CO2)cc1` (stereo not shown), the Inhibition % was found to be 6.97%.

With `CC(N)C1CCCN(C(=O)C=Cc2ccccn2)C1` (stereo not shown), the Inhibition % is given as 6.48%. With `CC1CCC(N(C)C(=O)Cn2cnc(C#N)n2)CC1` (stereo not shown), the Inhibition % is 5.54%. With `C=CC(=O)NC(C)(C)C1CCOCC1` the figure was 5.49%; with `O=C(CCl)NC1CCN(C(=O)CCc2ccccc2)CC1`, 11.9%; with `COc1cc(C)c(C(C)C)cc1S(=O)(=O)n1ccc(C)n1`, 4.05%. With `COc1ccc(CNC(=O)CCl)cc1OC`, the Inhibition % is recorded as 6.67%. As to `C=CC(=O)N1CCC(C#N)(c2ccccn2)CC1`, the Inhibition % amounted to 12.6%. With `O=C(NCC(CO)c1ccccc1)c1cccnc1S` (stereo not shown), the Inhibition % came to 9.26%. Then `C=CC(=O)NCC1COc2ccccc2C1` (stereo not shown), with 6.04%; and `N#CC(C(=O)CCl)c1nc(-c2ccccc2)cs1` (stereo not shown), with 2.49%. On to `COc1ccc(-n2c(C)c(C)c(C#N)c2NC(=O)CCl)cc1`, for which the Inhibition % is listed as 8.76%. Turning to `C#Cc1ccc(S(=O)(=O)F)cc1`, the Inhibition % came out at 14.4%. As for `C=CC(=O)NCc1ncc(C)s1`, the Inhibition % is on record as 7.52%. In the case of `O=C(CCl)Nc1c(Cl)cc(Cl)cc1Cl`, the Inhibition % stood at 6.3%.

For `N#Cc1ncn(CC(=O)c2ccc[nH]2)n1`, the Inhibition % was 9.25%.

As for `CC1CC(N2CCc3c(nc(C4CC4)n3C)C2)C(=O)O1` (stereo not shown), the Inhibition % came out at 5.37%. With `Cc1cc(C#N)nc(Cl)n1` the figure was 4.76%. With `COc1ccc(C2CCCN2C(=O)CCl)cc1OC` (stereo not shown) the figure was 9.71%; with `C=CC(=O)N1CCC(C)(c2ccccc2)C1` (stereo not shown), 8.41%; with `C=CC(=O)NCC1Cc2ccccc2N(C)C1` (stereo not shown), 13.5%. In the case of `N#CC(=Cc1cccnc1)C(=O)NCCc1ccccc1`, the Inhibition % is reported as 0.295%. Turning to `O=C(CCl)NNC(=O)c1ccccc1`, the Inhibition % is on record as -3.2%. In the case of `Cn1cnc2c(S)ncnc21`, the Inhibition % is reported as 9.16%. Then `C=CC(=O)N1CC(Cc2ccccc2C)C1`, with 8.3%; and `C=CC(=O)NCc1coc(-c2ccccc2)n1`, with -4.69%. For `CC(C1CC1)N(C(=O)CCl)C1CC1` (stereo not shown), the Inhibition % is recorded as 31.4%. For the molecule `Cl.ClCCN1CCOCC1`, the Inhibition % is given as 6.9%.

On to `Cc1ccc(S)nc1`, for which the Inhibition % turned out to be 7.53%. `Cc1cccc(NC(=O)NC(=O)CCl)c1C`: the Inhibition % is reported as -3%. In the case of `CC(C)c1csc(C2CCCN(C3CCOC3=O)C2)n1` (stereo not shown), the Inhibition % stood at 3.81%. As to `Cc1csc(NS(=O)(=O)c2cccc(S(=O)(=O)F)c2)n1`, the Inhibition % came to 83.9%.

Take `CC1(C)C(=O)NC1c1nccn1CC1CC1` (stereo not shown): the Inhibition % was 17.8%. On to `CC1(C)OB(C=C(c2ccccc2)C(F)(F)F)OC1(C)C`, for which the Inhibition % came to 3.39%. In the case of `N#CC(=Cc1ccc2c(c1)OCCO2)c1ccccn1`, the Inhibition % is listed as 14.7%. For the molecule `Cc1cc(C)n2nc(SC3CCOC3=O)nc2n1` (stereo not shown), the Inhibition % is 11.1%. As for `C=CC(=O)Nc1ccnn1CC1CC1`, the Inhibition % is reported as 8.8%. With `CC1CC(C)CN(C(=O)CCl)C1` (stereo not shown), the Inhibition % is on record as 29%.

Turning to `Cc1cc(S(=O)(=O)F)ccc1C(=O)O`, the Inhibition % is on record as 85.1%. As for `Cl.N#Cc1nc2c(s1)CNCC2`, the Inhibition % is 26%. Turning to `O=S(=O)(F)c1ncc(Br)cn1`, the Inhibition % is 5.61%.

For `Cn1nc(C2CCCC2)cc1NC(=O)c1c[nH]c(C#N)c1`, the Inhibition % is 36.5%. As to `COc1ccc(CNC(=O)n2nc(C)cc2C)cc1`, the Inhibition % was determined as 42.8%. With `C=CC(=O)NCCN1CCCS1(=O)=O` the figure was 16.1%. With `C=CC(=O)NC1CC(C)OC1C` (stereo not shown) the figure was 4.78%; with `O=C(CCl)N1CCCC1c1cccs1` (stereo not shown), 15.8%; with `Cc1cc2ncn(CCC3OCCO3)c2cc1C`, 5.56%. Consider `O=C(CCl)Nc1ccc(I)cc1`, for which the Inhibition % was determined as 93.2%. For the molecule `C=CC(=O)N1CCCC1c1cccc(C)c1` (stereo not shown), the Inhibition % was determined as 3.98%.

In the case of `CN(C)S(=O)(=O)c1ccc(NC(=O)CCCl)cc1`, the Inhibition % is reported as 7.94%. As for `Cc1[nH]c2ccccc2c1C=C(C#N)C(N)=O`, the Inhibition % was determined as 29%. Consider `CC(=O)N1CCN(C(=O)C(C#N)=Cc2ccccc2)CC1`, for which the Inhibition % was 10.8%. With `CC1(C)OB(c2ccc(C(F)(F)F)o2)OC1(C)C`, the Inhibition % was -0.214%.

Regarding `COc1ccc(C)cc1Cn1cnc(C#N)n1`, the Inhibition % was determined as 5.73%. For `O=C(Nc1ccccc1)c1cccnc1S`, the Inhibition % was determined as 3.52%. Then `O=C1CCc2cc(C(=O)CCl)c(F)cc2N1`, with 1.18%; and `N#Cc1cc(C(=O)O)ccn1`, with 4.99%. In the case of `CC(C)(C)Oc1ccc(C#N)nc1`, the Inhibition % is given as 8.71%. As to `O=C(CCCl)N1CCc2sccc2C1`, the Inhibition % was found to be 33.2%. Consider `COc1ccc(C=O)c(O)c1`, for which the Inhibition % is given as 8.29%.

As for `C=CC(=O)N1CCN(C(=O)Cc2c(C)noc2C)CC1`, the Inhibition % is recorded as 7.05%. `N#CC(=Cc1ccc(O)c(O)c1)C(=O)N1CCCC1`: the Inhibition % is on record as 28.9%. Regarding `Cc1c(NC(=O)CCl)c(=O)n(-c2ccccc2)n1C`, the Inhibition % is 18.9%. Consider `C=CC(=O)Nc1cnn(C(C)C)c1C1CC1`, for which the Inhibition % was determined as 10.5%. As to `c1ccc(C2OCC3(CCC4OC4C3)CO2)cc1` (stereo not shown), the Inhibition % is 8.47%.

With `Cc1cc(N2CCC2=O)n(C)n1`, the Inhibition % is 11.3%.

Regarding `OB(O)C1=CCN(Cc2cc3n(n2)CCC3)CC1`, the Inhibition % was 33.1%.

For the molecule `C=CC(=O)N1CCCC1c1cncc(C)c1` (stereo not shown), the Inhibition % was 17.8%. `CN(C)C=O.Cc1c(C(=O)O)sc2nc(S)[nH]c(=O)c12`: the Inhibition % came out at 4.25%. Consider `CN(C)C(=O)c1ccc(NC(=O)CCl)cc1`, for which the Inhibition % was 44.1%. As to `N#CC1CC2(CC(=O)N2)C1` (stereo not shown), the Inhibition % is listed as 5.93%.

With `C=CC(=O)Nc1ccc2occc2c1`, the Inhibition % is listed as 9.28%. On to `C=CC(=O)N1CCN(C(C)c2ncc(C)s2)CC1` (stereo not shown), for which the Inhibition % was 6.75%. Then `N#CC(=Cc1ccc(Cl)cc1)c1ccno1`, with 2.84%. With `CCc1nc(C#N)c(NCc2ccccc2Cl)o1` the figure was 3.03%; with `NC(=O)C1CCN(S(=O)(=O)C=Cc2ccccc2)CC1`, 9.73%. On to `Cc1csc(CNC(=O)C(C#N)=Cc2ccco2)n1`, for which the Inhibition % is 8.21%. Then `C=CC(=O)N1CC(C)(C)OC2(CCCOC2)C1` (stereo not shown), with 11.2%; and `COCC1CN(C(=O)c2c[nH]c(C#N)c2)CC(C)(C)O1` (stereo not shown), with 10.6%. With `N#CCCN(C(=O)CCl)c1ccccc1F` the figure was 33.7%; with `CC1(C)OB(C2=CCN(C(N)=O)CC2)OC1(C)C`, 13.9%; with `CN(Cc1ccncc1)c1ccc(Cl)c(C#N)n1`, 6.1%. For the molecule `C=CC(=O)N1C[C@H](C(N)=O)[C@@H](c2cnn(C)c2)C1`, the Inhibition % is reported as -0.998%. In the case of `O=C(CCl)Nc1ccc(OC(F)F)c(Cl)c1`, the Inhibition % came out at 45.8%. With `C=CC(=O)NC1CCOc2c(Cl)cccc21` (stereo not shown) the figure was 7.42%.

For `N#CC(=Cc1cccnc1)C(N)=O`, the Inhibition % stood at 3.72%. `C=CC(=O)N1CCCC(n2nc(C)cc2C)C1` (stereo not shown): the Inhibition % is listed as 6.14%. For the molecule `O=C(O)C=CC(=O)NCc1ccncc1`, the Inhibition % is 22.4%. Regarding `C=CC(=O)N1CSCC1C(=O)N(C)C` (stereo not shown), the Inhibition % was 7.82%. Turning to `C=CC(=O)NC(C)C(=O)N1CCc2ccccc21` (stereo not shown), the Inhibition % was determined as 6.75%.

Turning to `Cc1noc(C)c1CNC(=O)CCl`, the Inhibition % came out at 46.7%. Then `O=C(O)c1ccc(CN2C(=O)CCC2=O)cc1`, with 1.74%; and `O=C(CCl)Nc1ccc(S(=O)(=O)N2CCCCC2)cc1`, with 92.7%.

Regarding `C=CC(=O)N1CC(CC2CCOCC2)C1`, the Inhibition % came to 6.04%. As for `Sc1nccc2ccccc12`, the Inhibition % amounted to 13.7%. Turning to `CCC1(O)CN(c2cccc(C#N)n2)C1`, the Inhibition % was 7.19%. `N#CN=C(N)c1ccccc1`: the Inhibition % is listed as 4.36%. `Cl.ClCCn1cc(-c2ccccc2)cn1`: the Inhibition % is given as 6.06%.

For `O=C(C=Cc1cccnc1)N1CCc2ccccc21`, the Inhibition % is listed as 4.92%.

As to `Nc1cncc(S(=O)(=O)F)c1`, the Inhibition % turned out to be 95.6%. Turning to `N#Cc1nncn1CC(=O)Nc1ccc(F)cc1`, the Inhibition % is -3.5%. As for `CC(=O)N1CCc2sc(C(=O)CCl)cc2C1`, the Inhibition % turned out to be 73.5%. Then `Cc1ccc(N2C(=O)CN=C2S)cc1C`, with 3.06%. Then `O=C(CCCl)Nc1ccc(N2CCCC2=O)cc1`, with 7.14%; and `CC(C)NC(=O)C(C#N)=Cc1ccc(C(F)(F)F)[nH]1`, with 4.8%; and `O=C(c1ccc(F)cc1)N1CCCCC(Cl)C1=O` (stereo not shown), with -4.93%.

Regarding `C=C(C)c1nc(C#N)c(NCc2ccc(F)cc2)o1`, the Inhibition % is 5.36%. Then `C=CC(=O)NCc1ccc2c(c1)OCCO2`, with 2.74%. With `O=C(CCl)NCc1ccccc1Cn1cccn1`, the Inhibition % turned out to be 18.8%. As to `COc1nnc(CCCl)s1`, the Inhibition % is on record as 6.72%. With `COc1cc(C)ccc1S(=O)(=O)n1nc(C)cc1C`, the Inhibition % is 6.17%.

On to `C=CC(=O)N(C)CC1CCn2ccnc2C1` (stereo not shown), for which the Inhibition % amounted to 25.9%.

Turning to `N#CC(=Cc1ccc(O)c(O)c1)C(=O)NC1CCCCC1`, the Inhibition % turned out to be 24.4%.
